# For some of these results: What follows is the remainder of the data, with few or none of the hits. Inconclusive results are not listed. Only a part is listed here, and it is no random draw. Active and inactive are the calls of the source. How the source made its calls, unless noted: active means hit-call score of the fitted dose curve at least 0.9, where 1 is the maximum; inconclusive means response in the unintended direction; inactive means score below 0.9.
# Key:
# [1] = target: Retinoic acid receptor RXR-alpha (Homo sapiens) (UniProt P19793); experiment: ATG_RXRa_TRANS: Attagene TRANS-FACTORIAL HepG2 Assay for human Retinoid X Receptor alpha (RXRa) (AID 2283012)
# Procedure, shortened: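 Cells (HepG2) carried transiently transfected GAL4-responsive reporter units. Following a 24 h chemical incubation, reporter mRNA induction was read via RT-PCR fragment analysis; DMSO served as negative control and baseline.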
# [2] = ACEA_AR_agonist_AUC_viability: ACEA Biosciences xCELLigence Real-Time Cell Analysis on Androgen Receptor Agonism for Viability (AID 2283775)
# Procedure, shortened: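 Read-out is area under the impedance curve at 80 h post-dose in 22Rv1 cells, with DMSO as baseline and signal loss taken as reduced viability. Compounds ran in duplicate from 100 uM final.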
# [3] = ACEA_AR_antagonist_AUC_viability: ACEA Biosciences xCELLigence Real-Time Cell Analysis on Androgen Receptor Antagonism for Viability (AID 2283776);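 further: 22Rv1 human prostate cancer cells growing on impedance electrode plates; area under impedance growth curve at 80 h after dosing as viability; hits lower the growth signal relative to DMSO meaning cytotoxicity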
# Procedure, shortened: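 Impedance read-out (RT-CES): area under growth curve at 80 h post-dose, loss of signal scored vs DMSO baseline. 22Rv1 cells; 8-pt 1:4 series, top 100 uM final, ≤0.5% DMSO; biological duplicate.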
# [4] = target: Nuclear receptor subfamily 1 group I member 2 (Homo sapiens) (UniProt O75469); experiment: ATG_PXR_TRANS: Attagene TRANS-FACTORIAL HepG2 Assay for human Pregnane X Receptor (PXR) (AID 2283008)
# Procedure, shortened: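 Measures mRNA induction of a GAL4-UAS-driven reporter in human HepG2 cells transiently expressing PXR fused to Gal4, following 24 h treatment. DMSO served as negative control and baseline.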
# [5] = target: human Retinoid X Receptor beta (RXRb), RXRB (gene 6257) (UniProt P28702); experiment: ATG_RXRb_TRANS: Attagene TRANS-FACTORIAL HepG2 Assay for human Retinoid X Receptor beta (RXRb) (AID 2283013)
# Procedure, shortened: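 Multiplexed TRANS reporter assay in HepG2; 24 h dosing; reporter mRNA by RT-PCR/CE fluorescence; gain-of-signal relative to DMSO.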
# [6] = read-out: Matrix Metallopeptidase 1 (MMP1), MMP1 (gene 4312); experiment: BSK_BE3C_MMP1: BioMAP Diversity Plus: BE3C Assay for Matrix Metallopeptidase 1 (MMP1) Biomarker Activity (AID 2283024; active means hit-call score of the fitted dose curve at least 0.9, where 1 is the maximum; inactive means score below 0.9); conditions: actives raise or lower the signal; primary human bronchial epithelial cells
# Procedure, shortened: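 Dose cells, wait 24 h, run MMP1 ELISA; cells are human bronchial epithelial primaries. Both increases and decreases relative to DMSO counted.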
# [7] = target: human RAR-related Orphan Receptor beta (RORb), RORB (gene 6096) (UniProt Q92753); experiment: ATG_RORb_TRANS: Attagene TRANS-FACTORIAL HepG2 Assay for human RAR-related Orphan Receptor beta (RORb) (AID 2283010)
# Procedure, shortened: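 In this TRANS-format test, human HepG2 cells express chimeric NR-Gal4 fusion proteins driving GAL4-UAS reporters. After 24 h dosing, reporter transcripts are measured by fluorescent RT-PCR/capillary electrophoresis, with DMSO as negative control.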
# [8] = target: human Retinoic Acid Receptor gamma (RARg), RARG (gene 5916) (UniProt P13631); experiment: ATG_RARg_TRANS: Attagene TRANS-FACTORIAL HepG2 Assay for human Retinoic Acid Receptor gamma (RARg) (AID 2283009)
# Procedure, shortened: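 HepG2, RARg-GAL4 TRANS system, 24 h exposure; reporter mRNA by RT-PCR + CE fluorescence; increase over DMSO.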
# [9] = target: Glucocorticoid receptor (Homo sapiens) (UniProt P04150); experiment: NVS_NR_hGR: NovaScreen (NVS) Nuclear Receptor Binding Assay for human Glucocorticoid Receptor (GR) (AID 2283363);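 further: activity is loss of specific radioligand binding signal relative to DMSO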
# Procedure, shortened: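 Cell-free radioligand displacement assay on extracted human GR, read 16 h after dosing by filter-based scintillation counting. Screened in duplicate at 25 uM, then concentration series for actives; loss of signal versus DMSO baseline.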
# [10] = CCTE_Deisenroth_5AR_NBTE_acceptor: CCTE's 5alpha-reductase NanoBRET Target Engagement Assay - Autofluorescence Screen, Deisenroth Lab (AID 2284321; active means hit-call score of the fitted dose curve at least 0.9, where 1 is the maximum; inactive means score below 0.9;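 further: compound fluorescence in the acceptor channel under 460 nm excitation flags autofluorescence artifacts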); conditions: actives raise or lower the signal
# Procedure, shortened: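 HEK293T cell-based NanoBRET assay read 5 h after dosing; this acceptor channel serves as an autofluorescence artifact screen. Chemicals at nominal 100 uM were scanned in three independent runs (n=3), excitation 460 nm. Fitting was bidirectional versus DMSO baseline.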
# [11] = BSK_BE3C_SRB: Viability Assessment in the BioMAP Diversity Plus: BE3C Assay (AID 2283028; active means hit-call score of the fitted dose curve at least 0.9, where 1 is the maximum; inactive means score below 0.9;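 further: fitted both ways so AC50 may mark signal gain or loss versus DMSO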); conditions: primary human bronchial epithelial cells
# Procedure, shortened: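 Human primary bronchial epithelial cells were exposed to test chemicals for 24 h. Total protein in parallel cultures was then measured by staining with 0.1% sulforhodamine B after 10% TCA fixation, with absorbance read at 560 nm. Activity was fitted bidirectionally against DMSO.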
# [12] = read-out: Vascular cell adhesion molecule 1 (VCAM1), VCAM1 (gene 7412); experiment: BSK_4H_VCAM1: BioMAP Diversity Plus: 4H Assay for Vascular cell adhesion molecule 1 (VCAM1) Biomarker Activity (AID 2283033; active means hit-call score of the fitted dose curve at least 0.9, where 1 is the maximum; inactive means score below 0.9); conditions: actives raise or lower the signal; primary human endothelial cells (HUVEC)
# Procedure, shortened: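 Endpoint derived from bidirectional fitting against DMSO controls of VCAM-1 ELISA signal in umbilical vein endothelial cells sampled at 24 h following treatment.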
# [13] = read-out: Epidermal growth factor receptor (EGFR), EGFR (gene 1956); experiment: BSK_hDFCGF_EGFR: BioMAP Diversity Plus: hDFCGF Assay for Epidermal growth factor receptor (EGFR) Biomarker Activity (AID 2283057; active means hit-call score of the fitted dose curve at least 0.9, where 1 is the maximum; inactive means score below 0.9); conditions: actives raise or lower the signal; primary human foreskin fibroblasts
# Procedure, shortened: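 Measured by ELISA: EGFR levels on primary human foreskin fibroblasts 24 h after chemical treatment, analysed relative to DMSO with bidirectional fitting.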
# [14] = read-out: Matrix Metallopeptidase 9 (MMP9), MMP9 (gene 4318); experiment: BSK_KF3CT_MMP9: BioMAP Diversity Plus: KF3CT Assay for Matrix Metallopeptidase 9 (MMP9) Biomarker Activity (AID 2283074; active means hit-call score of the fitted dose curve at least 0.9, where 1 is the maximum; inactive means score below 0.9;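 further: MMP9 protein level quantified by ELISA in the co-culture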); conditions: actives raise or lower the signal; primary human keratinocytes with fibroblasts
# Procedure, shortened: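 Human keratinocyte and foreskin fibroblast co-culture exposed to chemicals for 24 h; MMP9 biomarker measured by ELISA, bidirectional fitting relative to DMSO; cytotoxicity tracked by SRB total protein staining in parallel cultures.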
# [15] = read-out: E-selectin (Homo sapiens) (UniProt P16581); experiment: BSK_SAg_Eselectin: BioMAP Diversity Plus: SAg Assay for Eselectin Biomarker Activity (AID 2283091; active means hit-call score of the fitted dose curve at least 0.9, where 1 is the maximum; inactive means score below 0.9); conditions: actives raise or lower the signal; primary human HUVEC with PBMC
# Procedure, shortened: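 HUVEC co-cultured with PBMC, compound dosed then read at 24 h; E-selectin measured by ELISA. Activity fitted bidirectionally against DMSO as negative control and baseline.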
# [16] = read-out: Thyroid Hormone Responsive (THRSP), THRSP (gene 7069); experiment: LTEA_HepaRG_THRSP: Life Technologies and Expression Analysis (LTEA) Assay for Thyroid Hormone Responsive (THRSP) using HepaRG (AID 2283536; active means hit-call score of the fitted dose curve at least 0.9, where 1 is the maximum; inactive means score below 0.9); conditions: actives raise or lower the signal; mRNA level, 48 h
# Procedure, shortened: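 Differentiated HepaRG cells treated 48 h in serum-free induction medium with 8 half-log concentrations up to 100 uM (0.5% DMSO), duplicates. THRSP mRNA by TaqMan qRT-PCR normalised to ACTB, GAPDH, POLR2A; bidirectional fit versus DMSO.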
# UniProt P19793, sequence (P19793 whole entry, looked up, the tested form may be a part): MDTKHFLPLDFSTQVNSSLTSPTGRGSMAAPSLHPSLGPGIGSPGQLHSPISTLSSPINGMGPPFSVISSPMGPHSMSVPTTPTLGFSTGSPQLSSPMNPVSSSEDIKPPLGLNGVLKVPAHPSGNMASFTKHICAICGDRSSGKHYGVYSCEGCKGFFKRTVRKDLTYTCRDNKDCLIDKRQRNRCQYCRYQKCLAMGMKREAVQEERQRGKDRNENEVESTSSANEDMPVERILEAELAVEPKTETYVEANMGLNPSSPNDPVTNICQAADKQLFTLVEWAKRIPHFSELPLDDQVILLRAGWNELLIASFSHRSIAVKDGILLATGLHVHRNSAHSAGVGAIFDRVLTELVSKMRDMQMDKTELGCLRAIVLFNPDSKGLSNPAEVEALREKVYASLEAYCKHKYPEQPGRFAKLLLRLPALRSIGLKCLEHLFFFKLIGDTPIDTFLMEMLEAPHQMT
# human Retinoic Acid Receptor gamma (RARg), RARG (gene 5916), sequence (P13631 whole entry, looked up, the tested form may be a part): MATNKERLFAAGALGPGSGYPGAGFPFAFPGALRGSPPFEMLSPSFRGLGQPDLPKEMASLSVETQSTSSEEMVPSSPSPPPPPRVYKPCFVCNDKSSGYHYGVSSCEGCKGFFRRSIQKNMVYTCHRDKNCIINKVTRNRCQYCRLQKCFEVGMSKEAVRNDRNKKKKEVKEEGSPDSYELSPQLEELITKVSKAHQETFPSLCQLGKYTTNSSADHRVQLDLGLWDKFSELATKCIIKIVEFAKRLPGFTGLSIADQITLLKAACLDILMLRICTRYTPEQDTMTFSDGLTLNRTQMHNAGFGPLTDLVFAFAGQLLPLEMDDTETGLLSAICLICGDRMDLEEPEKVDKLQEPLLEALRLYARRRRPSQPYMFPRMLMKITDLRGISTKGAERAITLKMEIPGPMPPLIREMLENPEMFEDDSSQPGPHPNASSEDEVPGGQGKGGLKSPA
# UniProt O75469, sequence (O75469 whole entry, looked up, the tested form may be a part): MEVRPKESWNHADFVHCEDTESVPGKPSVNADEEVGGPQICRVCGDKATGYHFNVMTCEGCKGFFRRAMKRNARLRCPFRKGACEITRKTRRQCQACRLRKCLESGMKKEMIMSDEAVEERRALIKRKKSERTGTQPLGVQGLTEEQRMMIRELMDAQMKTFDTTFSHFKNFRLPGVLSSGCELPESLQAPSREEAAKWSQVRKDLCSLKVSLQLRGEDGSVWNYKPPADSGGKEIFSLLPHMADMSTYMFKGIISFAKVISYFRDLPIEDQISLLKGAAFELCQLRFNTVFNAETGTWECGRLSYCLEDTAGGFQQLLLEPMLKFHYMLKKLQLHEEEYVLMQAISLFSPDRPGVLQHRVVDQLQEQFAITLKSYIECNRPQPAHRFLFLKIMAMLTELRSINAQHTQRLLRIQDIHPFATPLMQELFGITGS
# UniProt P04150, sequence (P04150 whole entry, looked up): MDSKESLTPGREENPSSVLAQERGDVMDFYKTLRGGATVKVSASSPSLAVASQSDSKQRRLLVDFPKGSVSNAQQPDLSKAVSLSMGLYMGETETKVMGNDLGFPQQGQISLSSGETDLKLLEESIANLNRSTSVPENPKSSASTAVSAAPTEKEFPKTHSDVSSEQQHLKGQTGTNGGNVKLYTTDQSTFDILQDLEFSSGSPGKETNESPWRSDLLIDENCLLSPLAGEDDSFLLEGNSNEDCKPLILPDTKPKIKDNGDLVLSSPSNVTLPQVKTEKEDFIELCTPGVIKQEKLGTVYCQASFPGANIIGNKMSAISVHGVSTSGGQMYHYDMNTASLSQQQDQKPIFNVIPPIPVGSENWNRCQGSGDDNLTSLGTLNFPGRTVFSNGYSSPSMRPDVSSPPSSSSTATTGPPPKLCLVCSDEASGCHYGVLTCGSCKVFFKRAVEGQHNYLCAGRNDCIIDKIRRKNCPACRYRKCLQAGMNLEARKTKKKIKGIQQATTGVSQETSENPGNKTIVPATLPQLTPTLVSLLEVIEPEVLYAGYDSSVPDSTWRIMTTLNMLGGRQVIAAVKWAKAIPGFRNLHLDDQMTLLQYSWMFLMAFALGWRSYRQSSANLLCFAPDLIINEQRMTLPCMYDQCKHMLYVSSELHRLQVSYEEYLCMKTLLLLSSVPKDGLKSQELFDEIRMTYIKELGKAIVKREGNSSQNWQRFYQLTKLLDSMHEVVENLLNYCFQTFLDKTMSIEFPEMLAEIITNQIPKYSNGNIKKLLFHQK
# UniProt P28702, sequence (P28702 whole entry, looked up): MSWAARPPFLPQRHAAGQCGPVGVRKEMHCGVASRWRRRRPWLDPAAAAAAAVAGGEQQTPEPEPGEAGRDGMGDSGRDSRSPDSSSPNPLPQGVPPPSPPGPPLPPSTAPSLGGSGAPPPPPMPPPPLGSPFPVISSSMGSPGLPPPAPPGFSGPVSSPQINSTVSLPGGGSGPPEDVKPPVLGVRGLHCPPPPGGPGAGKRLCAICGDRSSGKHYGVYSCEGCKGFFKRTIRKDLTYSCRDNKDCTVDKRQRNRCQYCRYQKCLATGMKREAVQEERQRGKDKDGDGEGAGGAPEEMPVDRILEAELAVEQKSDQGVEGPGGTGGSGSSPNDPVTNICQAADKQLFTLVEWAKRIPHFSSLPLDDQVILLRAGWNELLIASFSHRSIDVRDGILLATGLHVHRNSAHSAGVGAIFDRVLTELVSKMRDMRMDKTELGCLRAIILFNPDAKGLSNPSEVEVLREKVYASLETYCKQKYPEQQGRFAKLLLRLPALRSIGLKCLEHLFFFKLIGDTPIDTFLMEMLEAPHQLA
# UniProt Q92753, sequence (Q92753 whole entry, looked up, the tested form may be a part): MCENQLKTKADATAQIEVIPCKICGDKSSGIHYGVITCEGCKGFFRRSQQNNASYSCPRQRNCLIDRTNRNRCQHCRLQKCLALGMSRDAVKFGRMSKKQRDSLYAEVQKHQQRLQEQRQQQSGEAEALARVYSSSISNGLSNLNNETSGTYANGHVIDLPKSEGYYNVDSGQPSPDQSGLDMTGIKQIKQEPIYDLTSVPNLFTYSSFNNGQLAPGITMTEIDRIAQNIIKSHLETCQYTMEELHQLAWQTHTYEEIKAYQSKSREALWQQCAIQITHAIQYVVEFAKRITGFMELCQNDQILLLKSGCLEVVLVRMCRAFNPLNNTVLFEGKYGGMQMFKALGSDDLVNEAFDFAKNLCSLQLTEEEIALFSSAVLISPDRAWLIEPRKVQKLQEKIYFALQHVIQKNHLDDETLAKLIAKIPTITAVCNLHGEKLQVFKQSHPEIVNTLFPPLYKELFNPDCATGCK
# UniProt P16581, sequence (P16581 whole entry, looked up): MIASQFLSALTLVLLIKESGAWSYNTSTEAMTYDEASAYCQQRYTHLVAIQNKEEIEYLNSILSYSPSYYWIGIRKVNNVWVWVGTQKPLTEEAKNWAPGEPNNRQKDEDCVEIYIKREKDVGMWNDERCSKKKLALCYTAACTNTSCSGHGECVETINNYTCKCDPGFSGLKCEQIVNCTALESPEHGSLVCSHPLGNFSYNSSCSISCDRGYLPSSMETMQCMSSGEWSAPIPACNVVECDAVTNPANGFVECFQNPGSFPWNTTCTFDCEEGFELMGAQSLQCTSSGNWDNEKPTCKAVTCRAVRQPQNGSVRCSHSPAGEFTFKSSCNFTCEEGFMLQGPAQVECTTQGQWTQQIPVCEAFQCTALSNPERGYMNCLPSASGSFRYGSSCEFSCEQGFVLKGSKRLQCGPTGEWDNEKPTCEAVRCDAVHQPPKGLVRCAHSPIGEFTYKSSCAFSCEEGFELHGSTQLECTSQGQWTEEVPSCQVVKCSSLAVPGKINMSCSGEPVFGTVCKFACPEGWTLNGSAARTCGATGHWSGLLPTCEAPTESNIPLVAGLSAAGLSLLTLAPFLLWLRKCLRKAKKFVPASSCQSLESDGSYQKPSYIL
smiles,measurement,setting,value
O=C(c1ccccc1)c1ccc(O)cc1O,outcome,[1],inactive
same,outcome,[2],inactive
same,outcome,[3],inactive
O=S(=O)(O)c1ccc(N=Nc2c(O)ccc3ccccc23)cc1,outcome,[4],inactive
CCCCCCCCCCCC,outcome,[5],inactive
same,outcome,[6],inactive
same,outcome,[3],inactive
CCCCCCOc1ccc(O)cc1,outcome,[7],inactive
same,outcome,[1],inactive
CCCCCCCCCCCCCC[P+](CCCC)(CCCC)CCCC,outcome,[8],inactive
same,AC50,[9],active: 2.5 µM
same,AC50,[10],active: 13.3 µM
CC[C@H](C)C(=O)O[C@H]1C[C@@H](C)C=C2C=C[C@H](C)[C@H](CC[C@@H]3C[C@@H](O)CC(=O)O3)[C@H]21,outcome,[1],inactive
same,AC50,[11],active: 35.1 µM
same,AC50,[12],active: 34.5 µM
same,AC50,[13],active: 31.2 µM
same,AC50,[14],active: 30.5 µM
same,AC50,[15],active: 0.358 µM
same,AC50,[16],active: 21 µM

# — PubChem BioAssay (EPA / NIEHS)
